Among the data in a collection of fitness landscapes (doi:10.1126/science.1257360) are enrichment ratio values, retold here.

B1: PhoQ; a variant is named by its letters at X, in order, P23837 (parent)
chain: MKKLLRLFFPLSLRVRFLLATAAVVLVLSLAYGMVALIGYSVSFDKTTFRLLRGESNLFYTLAKWENNKLHVELPENIDKQSPTMTLIYDENGQLLWAQRDVPWLMKMIQPDWLKSNGFHEIEADVNDTSLLLSGDHSIQQQLQEVREDDDDAEMTHSVAVNVYPATSRMPKLTIVVVDTIPVELKSSYMVWSWFIYVLSANLLLVIPLLWVAAWWSLRPIEALAKEVRELEEHNRELLNPATTRELTSLVRNLNRLLKSERERYDKYRTTLTDLTHSLKTPLXXLQXXLRSLRSEKMSVSDAEPVMLEQISRISQQIGYYLHRASMRGGTLLSRELHPVAPLLDNLTSALNKVYQRKGVNISLDISPEISFVGEQNDFVEVMGNVLDNACKYCLEFVEISARQTDEHLYIVVEDDGPGIPLSKREVIFDRGQRVDTLRPGQGVGLAVAREITEQYEGKIVAGESMLGGARMEVIFGRQHSAPKDE

This is one part of the list.

This experiment covers variants of B1. The experiment is described as follows: enrichment ratio after two sorts for PhoP signalling (ratio (wild type AVST 3.29)); higher = more functional. The following applies: with PhoP (E. coli).
On to WGIM, for which the enrichment ratio is at most 0.25. Regarding KKEA, the enrichment ratio was at most 0.25. For the variant DCDL, the enrichment ratio was at most 0.25. To PKRD belongs at most 0.25; to NADR, at most 0.25. To DHPE belongs at most 0.25; to HHWS, at most 0.25; to ILLT, at most 0.25. MEHV: the enrichment ratio turned out to be 14.3. With WNMW the figure was at most 0.25.

Consider VQTV, for which the enrichment ratio is at most 0.25. Take QLGN: the enrichment ratio was at most 0.25.

Consider RIDD, for which the enrichment ratio was at most 0.25. With SGGW the figure was at most 0.25; with HYFE, at most 0.25.

For the variant FYQI, the enrichment ratio is at most 0.25.

For the variant EAYQ, the enrichment ratio is at most 0.25. For MCLN, the enrichment ratio came to 2.16. For VVKK, the enrichment ratio is at most 0.25. With ANSV the figure was 7.03; with WRGL, at most 0.25. To HDSK belongs at most 0.25.

Take NGQI: the enrichment ratio was at most 0.25. Consider PHNV, for which the enrichment ratio is at most 0.25. With WRWA the figure was at most 0.25; with TETY, 6.06; with AWHK, at most 0.25. With KMCA the figure was at most 0.25; with LVPL, at most 0.25; with YSCL, 7.36. To LPTV belongs at most 0.25; to KTYY, at most 0.25; to IKHV, at most 0.25. DDCM: the enrichment ratio was at most 0.25. For YGEC, the enrichment ratio is at most 0.25. With DVTL, the enrichment ratio is at most 0.25. With WRFT the figure was at most 0.25; with YWES, at most 0.25; with PHGG, at most 0.25.

On to GCTS, for which the enrichment ratio worked out at 0.341. With IVGV the figure was at most 0.25; with HIAG, at most 0.25. With MAGS the figure was 17.7; with HHWF, at most 0.25.

For the variant MSSH, the enrichment ratio turned out to be 0.512. With NSHW the figure was at most 0.25; with MMHT, at most 0.25; with GTKA, at most 0.25. To ILKA belongs at most 0.25; to IMSY, at most 0.25. With MNAS, the enrichment ratio was 6.24.

As to RVYH, the enrichment ratio was at most 0.25.

For WGIG, the enrichment ratio is at most 0.25. For the variant ITVL, the enrichment ratio is at most 0.25.

Take QRTW: the enrichment ratio is at most 0.25. To ASEP belongs at most 0.25; to HVPH, at most 0.25; to NSPF, at most 0.25. To YYEE belongs at most 0.25; to FDEG, at most 0.25; to LFQD, at most 0.25. Consider RTEW, for which the enrichment ratio was at most 0.25. With LTSV the figure was at most 0.25; with RDEC, at most 0.25; with WMMF, at most 0.25. As for HDVS, the enrichment ratio is at most 0.25.

With INDW, the enrichment ratio is at most 0.25. To QMSN belongs 0.645. With FSSW the figure was at most 0.25; with IKWT, at most 0.25. On to LTNM, for which the enrichment ratio was at most 0.25. In the case of DTDR, the enrichment ratio was at most 0.25. With KKMR the figure was at most 0.25. Consider YCKV, for which the enrichment ratio was at most 0.25. Consider WHQG, for which the enrichment ratio is at most 0.25.

As to FGCQ, the enrichment ratio was 13.2. To QNQC belongs at most 0.25; to VRIR, at most 0.25; to PPYF, at most 0.25.

On to TLFK, for which the enrichment ratio is at most 0.25. To MGQQ belongs at most 0.25; to GARR, at most 0.25. To MTQY belongs at most 0.25. With NLFL the figure was at most 0.25.
